{
  "source": "PubChem BioAssay AID1345082",
  "about": "(National Center for Advancing Translational Sciences (NCATS), 2018)",
  "note": "Screen size: about 94,000 compounds; about 4,000 (4.3%) were called active. Inconclusive means that the source gave no clear call. Such entries were picked first, then a sample of the others. The call rests on the fitted dose curve; in most records, active means well fitted inhibition curve with a large enough effect; inconclusive means small, poorly fitted or top-dose-only effect; inactive means no such curve, though single readings can be large or run the other way. A potency beside an inconclusive call is a rough fit, not a confirmed value. On the % scale 0 is the no-effect control and ±100 the full control effect; potency means the concentration at half of the fitted maximal effect; tags describe the fitted curve by direction and shape.",
  "data": [
    {"test": "Cytotoxic Profiling in NIH 3T3 Cell Line of Diverse Libraries Using Quantitative High-Throughput Screening; further: nearly all actives have a fitted effect of over 55% in size", "conditions": "NIH 3T3 viability, CellTiter-Glo ATP luminescence, 48-72 h; activity change, negative = cytotoxicity: at 96.7 µM (top of the series); series mostly up to 96.7 µM", "procedure,_shortened": "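Cytotoxicity was measured by CellTiter-Glo ATP luminescence after 48 or 72 h compound exposure at 37 °C. Mouse NIH 3T3 fibroblasts were seeded at 400 cells/well and dosed by 23 nL pin transfer.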", "values": [
      {"smiles": "COCc1nc(-c2ccc(OC3CCN(S(=O)(=O)c4ccccc4C)C3)cc2)no1", "note": "(stereo not drawn)", "Potency": "inconclusive: 44.7 µM [inhibitor, partial curve, poor fit]"},
      {"smiles": "CN(C)c1nc2c(c(=O)[nH]1)CCN(Cc1ccc(Cl)cc1F)CC2", "Potency": "inconclusive: 35.5 µM [inhibitor, partial curve, poor fit]"},
      {"smiles": "Cc1ccccc1S(=O)(=O)N1CCCC(CCC(=O)NCC2CCCCC2)C1", "note": "(stereo not drawn)", "Potency": "inconclusive: 70.8 µM [inhibitor, single point]"},
      {"smiles": "c1ccc(Cn2ccnc2C2CCN(c3ncnc4ccsc34)CC2)nc1", "Potency": "inconclusive: 50.1 µM [inhibitor, partial curve]"},
      {"smiles": "O=S(=O)(NC[C@H]1Cn2c(-c3ccc(F)cc3)cnc2CO1)c1ccc(Cl)cc1", "Potency": "inconclusive: 56.2 µM [inhibitor, partial curve, poor fit]"},
      {"smiles": "O=C(Nc1cc(C2CC2)nn1-c1ccccc1)c1ccccc1F", "Potency": "inconclusive: 79.4 µM [inhibitor, partial curve]"},
      {"smiles": "COc1cccc(-c2ccc(C(=O)N3CCC(NC(=O)c4cccc(Cl)c4)CC3)cc2)c1", "Potency": "inconclusive: 20 µM [inhibitor, full curve]"},
      {"smiles": "CCc1nc(-c2ccc(OC3CCN(C(=O)Cc4cccc(OC)c4)C3)cc2)no1", "note": "(stereo not drawn)", "activity change, negative = cytotoxicity": "inactive: -28.7%"},
      {"smiles": "COc1cccc(C(C)N(C)Cc2nc(Cc3cccc(F)c3)no2)c1", "note": "(stereo not drawn)", "Potency": "inconclusive: 44.7 µM [inhibitor, partial curve, poor fit]"},
      {"smiles": "O=C(NCc1ccc(F)cc1)C1CCN(Cc2ccccc2-c2ccccc2F)CC1", "Potency": "active: 31.6 µM"},
      {"smiles": "COCCC(=O)N1CCC2(CC1)C(=O)N(C)c1ccccc12", "Potency": "inconclusive: 70.8 µM [inhibitor, single point]"},
      {"smiles": "COCC(=O)N1CCC2(CC1)OC(=O)N(Cc1cccnc1)C2(C)c1ccccc1", "note": "(stereo not drawn)", "Potency": "inconclusive: 112 µM [inhibitor, single point]"},
      {"smiles": "CCOc1ccc(NC(=O)c2ccc3c(c2)N(C)C2CCCCN2C3=O)cc1", "note": "(stereo not drawn)", "Potency": "inconclusive: 50.1 µM [inhibitor, partial curve, poor fit]"},
      {"smiles": "CCCCN1C(=O)NC(c2ccccc2OC)C2=C1COC2=O", "note": "(stereo not drawn)", "outcome": "inactive"},
      {"smiles": "O=C(Nc1ccc(Cl)cc1)N1CCN(C(=O)c2nc3cccnc3n(C3CCCC3)c2=O)CC1", "Potency": "inconclusive: 56.2 µM [inhibitor, partial curve, poor fit]"},
      {"smiles": "Cc1noc2c(N3CCN(C)CC3c3ccccc3)cc(-c3cccnc3)nc12", "note": "(stereo not drawn)", "Potency": "inconclusive: 79.4 µM [inhibitor, partial curve]"},
      {"smiles": "CCCN1C(=O)CCc2cc(NC(=O)c3ccc(OC(F)(F)F)cc3)ccc21", "Potency": "active: 39.8 µM"},
      {"smiles": "O=C(CCc1nnn2c1CN(C(=O)Nc1ccc3c(c1)OCCO3)CC2)N1CCCC1", "activity change, negative = cytotoxicity": "inactive: -12.7%"},
      {"smiles": "O=C(NCc1ccc(F)cc1)c1cc(-c2ccc(F)cc2)c2nncn2n1", "activity change, negative = cytotoxicity": "inactive: -19.6%"},
      {"smiles": "O=C(Nc1ccc2ncnc(N3CCCCC3)c2c1)c1c(F)cccc1Cl", "Potency": "inconclusive: 31.6 µM [inhibitor, partial curve]"},
      {"smiles": "Cc1nc2c(c(-c3ccc(O)cc3)n1)CN(CC1CC1)CCC2", "activity change, negative = cytotoxicity": "inactive: -28.7% [at 138 µM]"},
      {"smiles": "CCN(CC)C(=O)N1CC[C@H](c2nc(C)no2)[C@H](NC(=O)COC)C1", "activity change, negative = cytotoxicity": "inactive: -4.61%"},
      {"smiles": "CN1CC2(CCCN(C(=O)c3ccc(OC(F)F)cc3)CC2)OC1=O", "note": "(stereo not drawn)", "activity change, negative = cytotoxicity": "inactive: 2.49%"},
      {"smiles": "CCCNC(=O)N1CCCCCNC(=O)[C@@H]2CCCC[C@@H]21", "activity change, negative = cytotoxicity": "inactive: -11%"},
      {"smiles": "COc1ccc(Cl)cc1C(=O)N1CCC2(CC1)NC(=O)N(c1ccccc1Cl)N2", "Potency": "inconclusive: 39.8 µM [inhibitor, partial curve, poor fit]"},
      {"smiles": "COCc1nc(N2CC3C[C@@H]4CC2C[C@H](C3)C4)c2cnn(C)c2n1", "Potency": "inconclusive: 79.4 µM [inhibitor, partial curve, poor fit]"},
      {"smiles": "Cn1ccnc1CN1C[C@@H](F)[C@@H](OCc2nc3ccc(C(F)(F)F)cc3[nH]2)C1", "activity change, negative = cytotoxicity": "inactive: -2.27% [at 138 µM]"},
      {"smiles": "Cc1ccc(-c2ccnc(N(C)CC3CC(=O)N(C(C)(C)C)C3)n2)c(C)n1", "note": "(stereo not drawn)", "Potency": "inconclusive: 56.2 µM [inhibitor, partial curve, poor fit]"},
      {"smiles": "O=[S+]([O-])(Nc1nncs1)c1ccc2c(c1)OCCN(Cc1cncc(F)c1)C2", "Potency": "active: 28.2 µM"},
      {"smiles": "O=C1NCc2ccccc2CC12CCN(Cc1cccc3ccccc13)C2", "note": "(stereo not drawn)", "Potency": "inconclusive: 70.8 µM [inhibitor, single point]"},
      {"smiles": "O=C(c1ccccc1F)N1CCN(c2cc(-c3cccs3)[nH]n2)CC1", "Potency": "inconclusive: 15.8 µM [inhibitor, full curve, poor fit]"},
      {"smiles": "Cc1oc2ccn(Cc3ccccc3F)c(=O)c2c1C(=O)NCc1cccnc1", "Potency": "inconclusive: 44.7 µM [inhibitor, partial curve, poor fit]"},
      {"smiles": "Cc1ccc(CN2CC[C@H](c3nnc(-c4ccccc4)o3)C2)cc1", "Potency": "inconclusive: 100 µM [inhibitor, partial curve]"},
      {"smiles": "COC(=O)C1=C(C)N=C2SC=C(CC(=O)NCc3ccccc3F)N2C1c1cccc(OC)c1", "note": "(stereo not drawn)", "Potency": "inconclusive: 44.7 µM [inhibitor, partial curve, poor fit]"},
      {"smiles": "O=C(Cc1ccccn1)N1CCCC(c2nn(-c3cccc(Cl)c3)c(=O)[nH]2)C1", "note": "(stereo not drawn)", "activity change, negative = cytotoxicity": "inactive: -1.93%"},
      {"smiles": "O=C(NCc1ccccc1-n1cncn1)C12CNCC1CNC2", "note": "(stereo not drawn)", "activity change, negative = cytotoxicity": "inactive: -1.53%"},
      {"smiles": "O=C1NCCCCCCN(Cc2ccncc2)[C@@H]2CN(S(=O)(=O)c3ccccc3)CC[C@@H]12", "activity change, negative = cytotoxicity": "inactive: -30.1%"},
      {"smiles": "Cc1nc(C(=O)N2CCOc3c(O)cc(-c4cccc(Cl)c4)cc3C2)c(C)o1", "Potency": "inconclusive: 56.2 µM [inhibitor, partial curve, poor fit]"},
      {"smiles": "O=C(c1ccc(C(F)(F)F)cc1)N1CCN(C(=O)c2nc3cccnc3n(Cc3ccccc3)c2=O)CC1", "Potency": "inconclusive: 50.1 µM [inhibitor, partial curve, poor fit]"},
      {"smiles": "O=C(NCc1ccccc1)c1nc2c(o1)CCN(Cc1ccc(F)cc1F)CC2", "Potency": "active: 70.8 µM"},
      {"smiles": "Cc1ccc(-c2cccc(CN3CCCC3C(=O)NCc3ccc(F)cc3F)c2)cc1Cl", "note": "(stereo not drawn)", "Potency": "inconclusive: 44.7 µM [inhibitor, partial curve, poor fit]"},
      {"smiles": "CCCCOc1ccc(C(=O)N2CCC[C@H]2c2nc(-c3ccc(C)cc3)no2)cc1", "Potency": "active: 35.5 µM"},
      {"smiles": "CCCCNc1nc2c(s1)C[C@]1(C)CC[C@@H]3[C@H](OC(=O)[C@H]3C)[C@H]1[C@@H]2C", "Potency": "inconclusive: 56.2 µM [inhibitor, partial curve, poor fit]"},
      {"smiles": "COc1cc(OC)cc(C(=O)NCC2CCCN(Cc3cc4ccccc4o3)C2)c1", "note": "(stereo not drawn)", "Potency": "inconclusive: 50.1 µM [inhibitor, partial curve, poor fit]"},
      {"smiles": "O=C(NCc1ccccn1)C1CN(S(=O)(=O)c2cccnc2)CC12CCCCC2", "note": "(stereo not drawn)", "Potency": "inconclusive: 70.8 µM [inhibitor, single point]"},
      {"smiles": "O=C(NC1CCCC1)[C@@H]1CCCN1c1nccc(Nc2ccccc2Cl)n1", "Potency": "inconclusive: 44.7 µM [inhibitor, partial curve, poor fit]"},
      {"smiles": "O=C(Nc1ccccc1F)N1CC2CCC(C1)N2Cc1cccc(-c2cccs2)c1", "Potency": "inconclusive: 50.1 µM [inhibitor, partial curve, poor fit]"},
      {"smiles": "COc1ccc(CN2CC(c3ncc4c(-c5ccccc5)nccn34)C2)cc1O", "Potency": "active: 89.1 µM"},
      {"smiles": "O=C1CCCN1c1ccc(Cn2ccn3nc(-c4ccc(F)cc4)c(CO)c3c2=O)cc1", "activity change, negative = cytotoxicity": "inactive: -9.26%"},
      {"smiles": "O=c1[nH]c(C2CCCN(Cc3cccc(-c4cccs4)c3)C2)nc2ccc(F)cc12", "note": "(stereo not drawn)", "Potency": "active: 31.6 µM"},
      {"smiles": "Cn1cnc(S(=O)(=O)N2CC(F)(F)C[C@H]2c2nc(C3CC3)no2)c1", "activity change, negative = cytotoxicity": "inactive: -3.59%"},
      {"smiles": "Cc1cc2c(-c3ccccc3C)nc(-c3c(C)noc3C)cc2[nH]1", "Potency": "inconclusive: 6.31 µM [inhibitor, full curve, poor fit]"},
      {"smiles": "COC1CCN(C(=O)C2(C)CN(Cc3ccccc3)Cc3ccc(Nc4ccccc4)nc32)CC1", "note": "(stereo not drawn)", "Potency": "inconclusive: 31.6 µM [inhibitor, partial curve]"},
      {"smiles": "O=C(Cc1cccc(F)c1)N1CCC(c2nc(-c3ccccc3)no2)C1", "note": "(stereo not drawn)", "Potency": "inconclusive: 35.5 µM [inhibitor, partial curve, poor fit]"},
      {"smiles": "O=C(c1ccc(OC2CCN(Cc3c[nH]c4ccccc34)CC2)cc1)N1CCCCC1", "Potency": "inconclusive: 56.2 µM [inhibitor, partial curve, poor fit]"},
      {"smiles": "CCCNC(=O)O[C@@H]1CC[C@]2(C)C(CC[C@@H](O)[C@H]2CC(=O)NCc2ccc(OC)cc2)[C@]1(C)CO", "note": "(stereo partly drawn)", "Potency": "inconclusive: 89.1 µM [inhibitor, single point]"},
      {"smiles": "O=c1[nH]c(N2CCOCC2)nc2c1CCN(Cc1cc(F)c(F)c(F)c1)CC2", "activity change, negative = cytotoxicity": "inactive: -6.78%"},
      {"smiles": "CC(=O)N1CCn2cc(C(=O)NCc3ccc(Cl)nc3)nc2C1", "outcome": "inactive"},
      {"smiles": "O=C(c1cc(-c2ccccc2F)cc2c1OCCN2Cc1cccnc1)N1CCCC1", "Potency": "inconclusive: 56.2 µM [inhibitor, partial curve, poor fit]"},
      {"smiles": "CC(C)[C@@H]1CN(c2nccc(C(F)(F)F)n2)C[C@H]1NS(C)(=O)=O", "Potency": "inconclusive: 7.94 µM [inhibitor, partial curve, poor fit]"},
      {"smiles": "COc1ccc(CNC(=O)c2cc(-c3ccccc3C(F)(F)F)nc3[nH]ncc23)cc1OC", "Potency": "inconclusive: 31.6 µM [inhibitor, partial curve]"},
      {"smiles": "O=C(NCC1CCCCC1)c1nc2sccn2c1-c1cccnc1", "Potency": "inconclusive: 39.8 µM [inhibitor, partial curve]"},
      {"smiles": "COc1cccc(NC(=O)Cn2c(C)ccc(NC(=O)Nc3ccc(C)cc3)c2=O)c1", "Potency": "inconclusive: 44.7 µM [inhibitor, partial curve, poor fit]"}
    ]}
  ]
}
